Where “and” joins values, the source holds several entries; their conditions need not be identical. Equal values may be shown once. Hit rate of the full screen: of about 48,000 compounds, about 1,200 (2.5%) were called active. Inconclusive results (about 2%) are left out.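 Rule for the calls: active = activation of at least 60% and not above a set upper limit (about 1 call in 100 departs from these limits); inconclusive = activation of 40% to 60%, or above that upper limit; inactive = activation under 40%.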 The list shows a part of the results.

The assay addresses Probable G-protein coupled receptor 32 (Homo sapiens) (UniProt O75388). As to the kind of experiment: qHTS for Agonists of Human Resolvin D1 Receptor DRV1. Note: 0% is about no effect. The note with it: CHO-K1 GPR32 beta-arrestin PathHunter luminescence, 90 min; at 76.9 µM; active compounds read high; zero percent set by DMSO-only wells. Summed up: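 CHO-K1 cells stably expressing ProLink-tagged GPR32 and Enzyme Activator-tagged beta-arrestin were seeded at 2,500 cells/well overnight, exposed to compounds for 90 min at 37 °C, then read by beta-Gal complementation chemiluminescence after 1 h detection reagent.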
UniProt O75388, sequence (O75388 whole entry, looked up): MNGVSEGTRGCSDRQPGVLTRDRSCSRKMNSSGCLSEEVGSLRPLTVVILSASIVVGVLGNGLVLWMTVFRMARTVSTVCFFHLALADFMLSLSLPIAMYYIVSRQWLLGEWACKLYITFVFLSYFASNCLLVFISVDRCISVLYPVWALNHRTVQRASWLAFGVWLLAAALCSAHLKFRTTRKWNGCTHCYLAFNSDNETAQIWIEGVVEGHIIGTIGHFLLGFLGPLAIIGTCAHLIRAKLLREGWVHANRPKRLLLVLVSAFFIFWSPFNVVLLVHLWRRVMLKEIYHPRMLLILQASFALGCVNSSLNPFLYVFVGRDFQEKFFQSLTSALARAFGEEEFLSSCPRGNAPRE
For the compound `N#Cc1cccc(Nc2ncnc3c2cnn3-c2cccc(Cl)c2)c1`, the activation was inactive: -0.53%.

Consider `Cc1ccc(Cl)cc1-n1ncc2c(NC3CCCCC3)ncnc21`, for which the activation is active: 67.6%.

Consider `Cc1ccc(C(=O)O)cc1-n1c(C)ccc1-c1ccccc1`, for which the activation is inactive: 3.75%.

In the case of `CCOC(=O)c1c(C)[nH]c(CCC(=O)Nc2c(Cl)cc(OC)cc2OC)c1C`, the activation is inactive: -17.5%.

For `COc1cc(OC)c2c(C)c(CC(=O)NCCc3ccccc3OC)c(=O)oc2c1`, the activation was inactive: 6.6%.

Regarding `CCc1ccc(S(=O)(=O)c2cnc3ccc(OC)cc3c2N2CCCC(C)C2)cc1` (stereo not drawn), the activation is inactive: -19.8%.

As to `Cc1cc(C(=O)N2CCN(c3ccc(F)cc3)CC2)c2c(C)nn(-c3cccc(Cl)c3C)c2n1`, the activation was inactive: -7.64%.

In the case of `CCCc1nc2nc(C)c(NS(=O)(=O)c3ccc(F)cc3)c(=O)n2[nH]1`, the activation was inactive: 2.43%.

On to `COc1ccc(CNC(=O)Cn2c(=O)nc(-c3ccccc3F)c3cc(Cl)ccc32)cc1OC`, for which the activation was inactive: -0.653%.

As to `COC(=O)c1cccc(Nc2c(-c3ccc(OC)cc3)nc3nc[nH]n23)c1`, the activation was inactive: -22.5%.

Take `CCOC(=O)c1ccc(NC(=O)C(CC)Sc2nnc3c4ccccc4n(C)c3n2)cc1` (stereo not drawn): the activation was inactive: -9.5%.

For the compound `Cc1ccc(C)c(NC(=O)Cn2nnc(C(=O)NCCc3ccccc3)c2N)c1`, the activation was inactive: -3%.

Regarding `Cc1cc(C)c(NC(=O)Cn2c(=O)n(Cc3ccc4c(c3)OCO4)c(=O)c3ccccc32)c(C)c1`, the activation is inactive: -16%.

Regarding `CCC1=Nc2cc(C(=O)NCc3ccccc3Cl)ccc2Sc2ccc(C)cc21`, the activation was inactive: -27%.

For `CC(C)(C)OC(=O)N1CCC(c2c(C(=O)NCc3ccccc3)cnn2-c2ccccc2)CC1`, the activation was inactive: -6.91%.

With `CCCCn1c(=N)c(S(=O)(=O)c2ccc(Cl)cc2)cc2c(=O)n3cccc(C)c3nc21`, the activation was inactive: -7.59%.

For `COc1ccccc1CNC(=O)CCc1c(C)nc2c(c(C)nn2-c2ccc(C)c(C)c2)c1C`, the activation was inactive: 3.07%.

Regarding `CC1CCC(NC(=O)c2ccc3c(c2)N(Cc2ccccc2)C(=O)c2ccccc2S3(=O)=O)CC1` (stereo not drawn), the activation is inactive: -7.54%.

`O=C(NC(=O)c1ccccc1)Nc1ccc(-n2nc(C(F)(F)F)cc2C(F)(F)F)cc1`: the activation was inactive: 6.23%.

For `CCc1ccc(CNC(=O)c2cc3c(=O)n(CC)c4ccccc4c3s2)cc1`, the activation was inactive: 11.5%.

On to `Cc1cccc(Nc2c(-c3cccs3)nc3nc(C)cc(C)n23)c1`, for which the activation is inactive: -25.6%.

Consider `CCOc1ccccc1CNC(=O)CN1C(=O)CSc2ccc(S(=O)(=O)N3CCOCC3)cc21`, for which the activation was inactive: -18.2%.

Consider `COc1ccc(NC(=O)CN(C)S(=O)(=O)c2ccc3c(c2)CCC(=O)N3)c(OC)c1`, for which the activation was inactive: -3.41%.

Take `COc1ccc(OC)c(NC(=O)Cn2c(=O)n(CC3CCCO3)c(=O)c3cc(OC)c(OC)cc32)c1` (stereo not drawn): the activation was inactive: -29.9%.

Consider `Cc1ccc(CNC(=O)c2cnc(N3CCCCC3)c3ccccc23)cc1`, for which the activation is inactive: -2.54%.

`CCc1ccc(NC(=O)CSc2nc3c(sc4ccccc43)c(=O)n2CCCOC)cc1`: the activation was inactive: -4.93%.

As to `O=C(c1ccc2c(c1)CCN2S(=O)(=O)c1ccccc1)N1CCN(c2cccc(Cl)c2)CC1`, the activation is inactive: -15.6%.

With `CCOC(=O)CNc1nc2ccccc2n2c(C)nnc12`, the activation is inactive: 6.23%.

For `CCN1CCC[C@H]1CNC(=O)c1c(O)c(Cl)cc(Cl)c1OC`, the activation was inactive: -1.35% and inactive: 0.943%.

Consider `Cc1ccc(C)c(OCCn2cc(C(=O)c3cccs3)c3ccccc32)c1`, for which the activation is inactive: -13.4%.

Regarding `O=[N+]([O-])c1ccc(S(=O)(=O)NCc2nc3cccnc3n2Cc2ccccc2Cl)cc1`, the activation is inactive: -16.7%.

`Cc1cccc(C(=O)N2CCc3cc(CNC(=O)c4ccc(Br)o4)ccc32)c1`: the activation was inactive: -22%.

For `O=c1nc2c(-c3ccc(F)cc3Cl)n[nH]n2c2ccccc12`, the activation is inactive: 6.3%.

Consider `COCc1cc(C)nc2sc(C(=O)Nc3ccc(OC(F)(F)F)cc3)c(N)c12`, for which the activation is inactive: 26.4%.

In the case of `COc1ccc(C)cc1NC(=O)Cn1c(=O)nc(-c2ccccc2F)c2cc(Cl)ccc21`, the activation is inactive: -15.8%.

Consider `COC(=O)c1cc(NC(=O)C2CCCN(S(=O)(=O)c3c(C)n[nH]c3C)C2)cc(C(=O)OC)c1` (stereo not drawn), for which the activation was inactive: 3.8%.

`Cc1c(C(=O)OCC2CCCCC2)[nH]c2c1C(=O)CC(c1ccc(F)cc1)C2` (stereo not drawn): the activation is inactive: 0.488%.

On to `CCCCCSc1nnc2c(n1)OC(CC)Nc1ccc(Br)cc1-2` (stereo not drawn), for which the activation was inactive: 25.4%.

Take `CN1C(C(=O)c2ccccc2)=C(NC(=O)c2ccccc2Br)c2ccccc2S1(=O)=O`: the activation was inactive: -24.8%.

For `COc1ccc(NC(=O)Nc2cccc(OCc3cc(=O)n4cccc(C)c4n3)c2)c(OC)c1`, the activation is inactive: -14.6%.

For the compound `COCCn1c(C)cc(O)c(C(c2ccc(Cl)cc2)N2CCN(c3ccccc3)CC2)c1=O` (stereo not drawn), the activation is inactive: -8.02%.

Turning to `O=S(=O)(c1ccc2[nH]c3c(c2c1)CCCC3)N1CCN(c2cccc(C(F)(F)F)c2)CC1`, the activation is inactive: -2.28%.

For `Cc1nc2ccc(S(=O)(=O)NC(C(=O)N3CCN(c4ccc(Cl)cc4)CC3)C(C)C)cc2s1` (stereo not drawn), the activation was inactive: 3.21%.

Regarding `CCc1ccc(NC(=O)Cc2csc(COc3cccc(C)c3)n2)cc1`, the activation is inactive: 11.4%.

On to `O=c1n(Cc2ccc(Cl)cc2)c2ccccc2c2nc(-c3ccccc3)nn12`, for which the activation was inactive: -10.1%.

For the compound `Cc1cc(C)cc(Nc2nc3ccccc3n3cnnc23)c1`, the activation is inactive: -16.4%.

For the compound `COc1cc(C2N=C(N)Nc3nc4ccccc4n32)ccc1OCC(=O)O` (stereo not drawn), the activation was inactive: 14.7%.

For the compound `COc1ccc(-c2cc(C(C)=O)c(C)n2CCC(=O)Nc2ccc(C)cc2Cl)cc1`, the activation is inactive: -14%.

With `Cc1cc(C)cc(-n2ccnc2SCC(=O)Nc2ccc(C)cc2C)c1`, the activation was inactive: 9.48%.

For `CC(=O)c1ccc(N2CCN(c3nc4c(S(=O)(=O)c5ccc(C)c(C)c5)nnn4c4ccc(Cl)cc34)CC2)cc1`, the activation was inactive: 16.7%.

`COc1ccc(-c2cc(C(=O)NCc3ccc(F)cc3)no2)cc1`: the activation is inactive: -0.3%.

Take `COc1ccc(C(=O)NCC(c2ccc(N(C)C)cc2)N2CCCC2)cc1` (stereo not drawn): the activation is inactive: -8.9%.

Consider `CCC(C(=O)Nc1cc(OC)ccc1OC)n1c(=O)c(C(F)(F)F)nc2ccccc21` (stereo not drawn), for which the activation is inactive: -33.1%.

Values taken from PubChem BioAssay AID1346428 (National Center for Advancing Translational Sciences (NCATS), 2018).
